Laboratory results taken from PubChem BioAssay AID463173 (ICCB-Longwood Screening Facility, Harvard Medical School, 2010).
Screen size: about 52,000 compounds; about 1,700 (3.3%) were called active. Rule as the data show it: active = survival mostly below about 52% (no sharp cut-off); inactive = mostly above about 56%. Some of the results follow.

What follows are compounds tested on Wild type (assay: S. aureus survival, RN4220 and DeltatarO strains – OD600, teichoic acid synthesis inhibitors, primary screen (AID 463173)). Conditions: S. aureus RN4220 wild type/DeltatarO growth, OD600, 18 h, stronger effect = lower value, screened at 18.75 µg/mL (by protocol).

Structure (SMILES)	survival
CCC1CN(C(=O)Nc2ccc(C(=O)O)cc2)c2cc(Cl)ccc2O1 (configuration not stated)	inactive: 76%
O=C(CSc1cn(CC(=O)N2CCCC2)c2ccccc12)Nc1cc(C(F)(F)F)ccc1Cl	inactive: 88%
COc1cc(NC(=O)c2c(C)oc3ncnc(N4CCCCC4)c23)cc(OC)c1	inactive: 121%
CCCS(=O)(=O)c1nc(S(=O)(=O)c2ccc(C)cc2)c(NCc2ccccc2)s1	inactive: 132%
CN(Cc1ccccc1)C(=O)c1cn(C)c2ccc(S(=O)(=O)N(C)C3CCCCC3)cc2c1=O	inactive: 87%
Cc1ccc2c(c1)c(=O)c1ccccc1n2CCCC(=O)Nc1c(F)cccc1F	inactive: 69%
Cc1cccc(Cn2c(SCc3ccc(C(=O)NC4CCCCC4)cc3)nc3ccncc32)c1	inactive: 90%
COc1ccc(NC(=O)c2c(C)oc3ccc(O)c(CN4CCN(Cc5ccccc5)CC4)c23)cc1	inactive: 71%
CCC(=O)N1CCc2cc(S(=O)(=O)CCC(=O)NCc3cccc(OC)c3)ccc21	inactive: 119%
COc1ccc(/C=C(/C#N)c2nc(-c3ccc(Br)cc3)cs2)cc1	inactive: 64%
CCOC(=O)c1ccc(N2C(=O)c3n[nH]c(-c4cccs4)c3C2c2ccc(Cl)cc2Cl)cc1 (configuration not stated)	inactive: 21%
Cc1cc(Br)ccc1NC(=O)C1CCN(S(=O)(=O)c2ccc(Br)s2)CC1	inactive: 70%
CCOc1ccc(NC(=O)CCS(=O)(=O)c2ccc(Br)cc2)cc1	inactive: 73%
Cc1ccc2c(c1)-c1c(cnn1CC(=O)Nc1ccccc1C#N)CO2	inactive: 130%
Cc1ccc(C(=O)COC(=O)CCC(=O)Nc2ccc(Oc3cc(C)ccc3C(C)C)cc2)cc1	inactive: 76%
CCc1ccc(C2=NN(CCC(=O)NCCc3ccc(Cl)cc3)C(=O)CC2)cc1	inactive: 133%
CC(=O)N1CCCc2cc(S(=O)(=O)N3CCCC(C(=O)N4CCN(c5cc(C)ccc5C)CC4)C3)ccc21 (configuration not stated)	inactive: 85%
Cc1ccc(OC(=O)CSc2nnc(CNC(=O)c3ccccc3)o2)cc1	inactive: 87%
Cc1ccc(CCNC(=O)CCSCc2ccccc2Cl)cc1	active: -3%

Structure (SMILES)	survival
CC(C)n1nnnc1SCC(=O)c1ccc2c(c1)OCCO2	inactive: 113%
CCCn1c2ccccc2c2cnn(CC(=O)NC(CCSC)C(=O)OC)c(=O)c21 (configuration not stated)	inactive: 136%
O=C(NCC(c1ccccc1)c1ccccc1)c1nn(-c2ccccc2F)nc1CO	inactive: 122%
CCOC(=O)c1nnc2c(-c3ccc(Cl)cc3)c(C)nn2c1C	inactive: 52%
Cc1c(C(=O)NCCN(C)C)sc2nc3n(c(=O)c12)CCC3	inactive: 84%
Cc1cc(C)cc(NC(=O)Cn2c3ncccc3c(=O)n2-c2ccc(C)c(C)c2)c1	inactive: 74%
O=C(NCc1ccccc1)c1ccc2c(c1)nc1n2CCCCC1	inactive: 76%
CCC(NC(=O)c1ccccc1NC(=O)c1ccco1)C(=O)NC1CCCCC1 (configuration not stated)	inactive: 104%
COC(=O)C1=C(C)N(Cc2cccnc2)C(=O)C1	inactive: 105%
O=C(Cn1cnc2nc3c(cc2c1=O)CCCC3)N1CCN(c2ccccc2)CC1	inactive: 69%
Cc1ccc(CSc2ncc(Cl)c(C(=O)Nc3sc4c(c3C(N)=O)CCCC4)n2)cc1	inactive: 115%
CCn1c(SCC(=O)c2ccccc2)nnc1-c1ccco1	inactive: 99%
Cc1cccc(N2CCN(Cc3nnc(-c4ccc5c(c4)OCO5)o3)CC2)c1C	inactive: 83%
O=C(C1CC1)N1c2ccccc2Sc2ccccc21	inactive: 104%
CCc1nn2c(=O)cc(COc3ccc(/C=C(\C#N)C(=O)Nc4ccc(C)cc4)cc3)nc2s1	inactive: 92%
Cc1ccc(-c2cc(C(F)(F)F)c(C#N)c(SCC(=O)O)n2)cc1	inactive: 86%
O=C(Cn1c(=O)c2cccn2c2ccc(F)cc21)N1CCN(c2ccccc2)CC1	inactive: 89%
CCc1ccc(NC(=O)Cn2c(=O)n(CC3CCCO3)c(=O)c3cc(OC)c(OC)cc32)cc1 (configuration not stated)	inactive: 68%
Cc1ccccc1CNC(=O)C(=O)NCC(c1cccs1)S(=O)(=O)c1ccc(Cl)cc1 (configuration not stated)	inactive: 74%

Structure (SMILES)	survival
O=C(CN1C(=O)C2CCCCN2c2ccc(C(=O)N3CCCC3)cc21)NCc1cccc(F)c1 (configuration not stated)	inactive: 65%
COc1ccc(NC(=O)Nc2ccccc2OCc2cc(=O)n3ccccc3n2)c(OC)c1	inactive: 128%
CC(=O)N(c1nnc(-c2ccc(C)cc2)s1)C1CCCC1	inactive: 107%
CCN(CC)c1ccc(NC(=O)CN2C(=O)c3cccnc3Sc3ccccc32)c(C)c1	active: -4%
COCCN1Cc2cccc(C(=O)Nc3ccc(Cl)cc3Cl)c2C1=O	inactive: 78%
CC(C)NC(=O)Cn1nc(N2CCN(c3ccccc3)CC2)ccc1=O	inactive: 66%
COc1ccc2oc(-c3ccc(C)c(NC(=O)CSc4ccc(Cl)cc4)c3)nc2c1	inactive: 73%
CC(=O)N1c2ccc(S(=O)(=O)N3CCN(c4cccc(Cl)c4)CC3)cc2CC1C (configuration not stated)	inactive: 122%
CC(=O)N1CCc2c(sc3c2c(=O)n(CCc2ccccc2)c(=O)n3Cc2cccc(C)c2)C1	inactive: 94%
O=c1c(=O)n(Cc2c(F)cccc2Cl)ccn1Cc1ccccc1	inactive: 84%
COc1ccc(N2CCN(C3C(=O)c4ccccc4N3C(C)=O)CC2)cc1 (configuration not stated)	inactive: 68%
Cc1ccc(-c2c3c(=O)n(C)c(=O)n(C)c3cn2-c2cc(C)ccc2O)cc1	inactive: 74%
Cc1ccc(-n2ncc3c(=O)n(CC(=O)N(C)C)cnc32)cc1	inactive: 95%
COc1cccc(NC(=O)Cn2c(=O)n(CC(=O)NCCc3ccccc3)c(=O)c3sccc32)c1	inactive: 79%
Cc1c(Cl)cccc1NC(=O)CSc1nc(=O)n(Cc2cccnc2)c2c1CCC2	inactive: 143%
COC(=O)C1CCN(C(c2ccccc2)c2sc3nc(-c4ccco4)nn3c2O)CC1 (configuration not stated)	inactive: 65%
O=C1CC(c2nc(-c3ccccc3)no2)CN1c1ccc2c(c1)OCCO2 (configuration not stated)	inactive: 74%
Cc1cc(Cl)ccc1NS(=O)(=O)c1ccc2c(c1)CC(C)N2C(=O)C1CCC1 (configuration not stated)	inactive: 71%
Cc1c(Cl)cccc1-n1ncc(C(=O)Nc2ccc(F)cc2F)c1C1CCN(C(=O)OC(C)(C)C)CC1	inactive: 71%
